# From the supplement of paper PMC8728848
# Some of the results follow.
# B1: EULS2 M2 (Oryza sativa) (protein)
# chain: MVYCRANPNYAMTARNGAVVLAPANPKDEYQHWIKDMRWSTSIKDEEGYPAFALVNKATGQAIKHSLGQSHPVRLVPYNPEVMDESVLWTESRDVGNGFRCIRMVNNIYLNFDAFHGDKYHGGVRDGTDIVLWKLCEGDSQRWKIQPYYILEQKLISEEDLNSAVDHHHHHH
# Key:
# Test in all cases: glycan array binding signal (z-score within array); higher = stronger binding
# Settings in all cases: glycan notation: IUPAC condensed, linker removed
# [1] = biological target: Fuc(a1-2)Gal(b1-4)[Fuc(a1-3)]GlcNAc(b1-2)Man(a1-3)[Fuc(a1-2)Gal(b1-4)[Fuc(a1-3)]GlcNAc(b1-2)Man(a1-6)]Man(b1-4)GlcNAc(b1-4)[Fuc(a1-6)]GlcNAc
# Method in brief: (§1)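 The binding signal is a Z-score computed within each array and averaged over linkers. Arrays of the same protein sequence at different concentrations or buffers were also averaged together. Data originate from 3228 arrays in the Consortium for Functional Glycomics database, kept only where the protein sequence was available.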
# [2] = biological target: Fuc(a1-2)Gal(b1-4)[Fuc(a1-3)]GlcNAc(b1-2)[Fuc(a1-2)Gal(b1-4)[Fuc(a1-3)]GlcNAc(b1-4)]Man(a1-3)[Fuc(a1-2)Gal(b1-4)[Fuc(a1-3)]GlcNAc(b1-2)Man(a1-6)]Man(b1-4)GlcNAc(b1-4)GlcNAc
# Method in brief: as §1
# [3] = biological target: Fuc(a1-2)Gal(b1-4)[Fuc(a1-3)]GlcNAc(b1-3)Gal(b1-4)[Fuc(a1-3)]GlcNAc
# Method in brief: as §1
# [4] = biological target: Fuc(a1-2)Gal(b1-4)[Fuc(a1-3)]GlcNAc(b1-3)Gal(b1-4)[Fuc(a1-3)]GlcNAc(b1-3)Gal(b1-4)[Fuc(a1-3)]GlcNAc
# Method in brief: as §1
# [5] = biological target: Fuc(a1-2)Gal(b1-4)[Fuc(a1-3)]GlcNAc(b1-3)GalNAc
# Method in brief: as §1
# [6] = biological target: Fuc(a1-2)Gal(b1-4)[Fuc(a1-3)]GlcNAc(b1-3)[Neu5Ac(a2-6)Gal(b1-4)GlcNAc(b1-6)]Gal(b1-4)Glc
# Method in brief: as §1
# [7] = biological target: Fuc(a1-2)Gal3S(b1-4)GlcNAc
# Method in brief: as §1
# [8] = biological target: Fuc(a1-2)Gal6S(b1-3)GlcNAc
# Method in brief: as §1
# [9] = biological target: Fuc(a1-2)Gal6S(b1-3)GlcNAc6S
# Method in brief: as §1
# [10] = biological target: Fuc(a1-2)Gal6S(b1-4)Glc
# Method in brief: as §1
# [11] = biological target: Fuc(a1-2)Gal6S(b1-4)Glc6S
# Method in brief: as §1
# [12] = biological target: Fuc(a1-2)[Gal(a1-3)]Gal
# Method in brief: as §1
# [13] = biological target: Fuc(a1-2)[Gal(a1-3)]Gal(b1-3)GalNAc
# Method in brief: as §1
# [14] = biological target: Fuc(a1-2)[Gal(a1-3)]Gal(b1-3)GalNAc(b1-3)Gal(a1-4)Gal(b1-4)Glc
# Method in brief: as §1
# [15] = biological target: Fuc(a1-2)[Gal(a1-3)]Gal(b1-3)GlcNAc
# Method in brief: as §1
# [16] = biological target: Fuc(a1-2)[Gal(a1-3)]Gal(b1-3)GlcNAc(b1-2)Man(a1-3)[Fuc(a1-2)[Gal(a1-3)]Gal(b1-3)GlcNAc(b1-2)Man(a1-6)]Man(b1-4)GlcNAc(b1-4)GlcNAc
# Method in brief: as §1
# [17] = biological target: Fuc(a1-2)[Gal(a1-3)]Gal(b1-3)GlcNAc(b1-2)Man(a1-3)[Fuc(a1-2)[Gal(a1-3)]Gal(b1-3)GlcNAc(b1-2)Man(a1-6)]Man(b1-4)GlcNAc(b1-4)[Fuc(a1-6)]GlcNAc
# Method in brief: as §1
# [18] = biological target: Fuc(a1-2)[Gal(a1-3)]Gal(b1-3)GlcNAc(b1-3)GalNAc
# Method in brief: as §1
# [19] = biological target: Fuc(a1-2)[Gal(a1-3)]Gal(b1-3)GlcNAc(b1-6)GalNAc
# Method in brief: as §1
# [20] = biological target: Fuc(a1-2)[Gal(a1-3)]Gal(b1-4)Glc
# Method in brief: as §1
# [21] = biological target: Fuc(a1-2)[Gal(a1-3)]Gal(b1-4)GlcNAc
# Method in brief: as §1
# [22] = biological target: Fuc(a1-2)[Gal(a1-3)]Gal(b1-4)GlcNAc(b1-2)Man
# Method in brief: as §1
# [23] = biological target: Fuc(a1-2)[Gal(a1-3)]Gal(b1-4)GlcNAc(b1-2)Man(a1-3)[Fuc(a1-2)[Gal(a1-3)]Gal(b1-4)GlcNAc(b1-2)Man(a1-6)]Man(b1-4)GlcNAc(b1-4)GlcNAc
# Method in brief: as §1
# [24] = biological target: Fuc(a1-2)[Gal(a1-3)]Gal(b1-4)GlcNAc(b1-2)Man(a1-3)[Fuc(a1-2)[Gal(a1-3)]Gal(b1-4)GlcNAc(b1-2)Man(a1-6)]Man(b1-4)GlcNAc(b1-4)[Fuc(a1-6)]GlcNAc
# Method in brief: as §1
# [25] = biological target: Fuc(a1-2)[Gal(a1-3)]Gal(b1-4)GlcNAc(b1-3)GalNAc
# Method in brief: as §1
# [26] = biological target: Fuc(a1-2)[Gal(a1-3)]Gal(b1-4)GlcNAc(b1-3)[Fuc(a1-2)[Gal(a1-3)]Gal(b1-4)GlcNAc(b1-6)]GalNAc
# Method in brief: as §1
# [27] = biological target: Fuc(a1-2)[Gal(a1-3)]Gal(b1-4)GlcNAc(b1-6)GalNAc
# Method in brief: as §1
# [28] = biological target: Fuc(a1-2)[Gal(a1-3)]Gal(b1-4)[Fuc(a1-3)]Glc
# Method in brief: as §1
# [29] = biological target: Fuc(a1-2)[Gal(a1-3)]Gal(b1-4)[Fuc(a1-3)]GlcNAc
# Method in brief: as §1
# [30] = biological target: Fuc(a1-2)[Gal(a1-3)]Gal(b1-4)[Fuc(a1-3)]GlcNAc(b1-3)GalNAc
# Method in brief: as §1
# [31] = biological target: Fuc(a1-2)[Gal(a1-4)]Gal(b1-4)GlcNAc
# Method in brief: as §1
# [32] = biological target: Fuc(a1-2)[GalNAc(a1-3)]Gal
# Method in brief: as §1
# [33] = biological target: Fuc(a1-2)[GalNAc(a1-3)]Gal(b1-3)GalNAc(a1-3)[Fuc(a1-2)]Gal(b1-4)GlcNAc
# Method in brief: as §1
# [34] = biological target: Fuc(a1-2)[GalNAc(a1-3)]Gal(b1-3)GalNAc(b1-3)Gal(a1-4)Gal(b1-4)Glc
# Method in brief: as §1
# [35] = biological target: Fuc(a1-2)[GalNAc(a1-3)]Gal(b1-3)GlcNAc
# Method in brief: as §1
# [36] = biological target: Fuc(a1-2)[GalNAc(a1-3)]Gal(b1-3)GlcNAc(b1-2)Man(a1-3)[Fuc(a1-2)[GalNAc(a1-3)]Gal(b1-3)GlcNAc(b1-2)Man(a1-6)]Man(b1-4)GlcNAc(b1-4)GlcNAc
# Method in brief: as §1
# [37] = biological target: Fuc(a1-2)[GalNAc(a1-3)]Gal(b1-3)GlcNAc(b1-2)Man(a1-3)[Fuc(a1-2)[GalNAc(a1-3)]Gal(b1-3)GlcNAc(b1-2)Man(a1-6)]Man(b1-4)GlcNAc(b1-4)[Fuc(a1-6)]GlcNAc
# Method in brief: as §1
# [38] = biological target: Fuc(a1-2)[GalNAc(a1-3)]Gal(b1-3)GlcNAc(b1-3)GalNAc
# Method in brief: as §1
binder,measurement,setting,value
B1,glycan array binding signal (z-score),[1],-0.258
same,glycan array binding signal (z-score),[2],-0.119
same,glycan array binding signal (z-score),[3],-0.078
same,glycan array binding signal (z-score),[4],0.542
same,glycan array binding signal (z-score),[5],-0.203
same,glycan array binding signal (z-score),[6],-0.288
same,glycan array binding signal (z-score),[7],-0.237
same,glycan array binding signal (z-score),[8],-0.175
same,glycan array binding signal (z-score),[9],1.7
same,glycan array binding signal (z-score),[10],-0.495
same,glycan array binding signal (z-score),[11],0.838
same,glycan array binding signal (z-score),[12],-0.44
same,glycan array binding signal (z-score),[13],-0.443
same,glycan array binding signal (z-score),[14],-0.453
same,glycan array binding signal (z-score),[15],0.163
same,glycan array binding signal (z-score),[16],-0.484
same,glycan array binding signal (z-score),[17],-0.058
same,glycan array binding signal (z-score),[18],-0.424
same,glycan array binding signal (z-score),[19],0.206
same,glycan array binding signal (z-score),[20],0.327
same,glycan array binding signal (z-score),[21],0.24
same,glycan array binding signal (z-score),[22],-0.421
same,glycan array binding signal (z-score),[23],-0.309
same,glycan array binding signal (z-score),[24],-0.126
same,glycan array binding signal (z-score),[25],-0.48
same,glycan array binding signal (z-score),[26],-0.484
same,glycan array binding signal (z-score),[27],0.234
same,glycan array binding signal (z-score),[28],0.184
same,glycan array binding signal (z-score),[29],-0.305
same,glycan array binding signal (z-score),[30],0.114
same,glycan array binding signal (z-score),[31],-0.494
same,glycan array binding signal (z-score),[32],-0.198
same,glycan array binding signal (z-score),[33],-0.386
same,glycan array binding signal (z-score),[34],-0.363
same,glycan array binding signal (z-score),[35],-0.454
same,glycan array binding signal (z-score),[36],-0.316
same,glycan array binding signal (z-score),[37],-0.503
same,glycan array binding signal (z-score),[38],-0.599
